# In publication PMC7215714, “Para-Halogenation of Amphetamine and Methcathinone Increases the Mitochondrial Toxicity in Undifferentiated and Differentiated SH-SY5Y Cells” (International Journal of Molecular Sciences, 2020):
# pIC50: −log10 of the molar value.
# Tests used:
# [1] = system: undifferentiated and differentiated SH-SY5Y cells; assay: Cellular oxygen consumption (Seahorse XF96); conditions: for Effect on oxidative metabolism: SH-SY5Y cells
# [2] = system: undifferentiated and differentiated SH-SY5Y cells; assay: Mitochondrial membrane potential (JC-1 staining); type: cell-based, human; conditions: for Δψm: not toxic up to / Effect on Δψm: both cell models; for Δψm: not toxic up to / Effect on Δψm / Concentration starting to decrease Δψm: 24 h
# [3] = system: undifferentiated and differentiated SH-SY5Y cells; assay: Intracellular ATP content (CellTiter-Glo); type: cell-based, human; conditions: for Intracellular ATP content: no toxicity up to: undifferentiated and differentiated SH-SY5Y cells
# [4] = system: undifferentiated and differentiated SH-SY5Y cells; assay: Cell membrane integrity, adenylate kinase (AK) release (ToxiLight); type: cell-based, human; conditions: for pIC50: read-out: MT (IC50), membrane toxicity; for Concentration at which significantly membrane toxic: undifferentiated SH-SY5Y
# [5] = system: undifferentiated and differentiated SH-SY5Y cells; assay: Annexin V/propidium iodide staining (apoptosis/necrosis, flow cytometry); type: cell-based, human
# [6] = system: undifferentiated and differentiated SH-SY5Y cells; assay: Mitochondrial superoxide production (MitoSOX Red); type: cell-based, human; conditions: for Concentration at which mitochondrial superoxide production started to increase: 24 h
# [7] = system: caspases 3 and 9 in SH-SY5Y cells; assay: Western blotting of cleaved caspase 3 and 9; type: cell-based, human; conditions: 2000 μM, 6 h, both undifferentiated and differentiated SH-SY5Y cells
# [8] = Homo sapiens, SH-SY5Y, 24 h, differentiated (diff) SH-SY5Y cells, 24 h, read-out: ATP (IC50), ATP depletion
# [9] = Homo sapiens, SH-SY5Y, 24 h, undifferentiated (und) SH-SY5Y cells, 24 h, read-out: ATP (IC50), ATP depletion
# [10] = Homo sapiens, SH-SY5Y, 24 h, differentiated (diff) SH-SY5Y cells, 24 h
# [11] = Homo sapiens, SH-SY5Y, 24 h, undifferentiated (und) SH-SY5Y cells, 24 h
# [12] = differentiated (diff) SH-SY5Y cells, 24 h, read-out: ATP (IC50), ATP depletion
# [13] = undifferentiated (und) SH-SY5Y cells, 24 h, read-out: ATP (IC50), ATP depletion
# [14] = differentiated (diff) SH-SY5Y cells, 24 h
# [15] = undifferentiated (und) SH-SY5Y cells, 24 h
# [16] = undifferentiated and differentiated SH-SY5Y cells
# [17] = differentiated SH-SY5Y cells, 6 h
# [18] = undifferentiated SH-SY5Y cells, 6 h
# [19] = Homo sapiens, SH-SY5Y, both cell types, summary in abstract, read-out: IC50 values for cellular ATP depletion (in the range of)
smiles,measurement,setting,value
"CC(N)Cc1ccccc1 (stereo not drawn) [amphetamine, Amphetamine]",Effect on oxidative metabolism,[1]; 24 h,did not affect the oxidative metabolism
same,Δψm: not toxic up to,[2],> 2000 µM
same,pIC50,[3]; [8],< 2.70
same,pIC50,[3]; [9],< 2.70
same,"ATP depletion, lowest concentration with significant toxic effect","[3]; Table S1, und",2 mM
same,Concentration at which intracellular ATP content started to decrease,"[3]; differentiated cells, 24 h",did not significantly decrease the cellular ATP pool
same,Concentration at which intracellular ATP content started to decrease,"[3]; undifferentiated cells, 24 h",1000 µM
same,pIC50,[4]; [10],< 2.70
same,pIC50,[4]; [11],< 2.70
same,"Cytotoxicity, lowest concentration with significant toxic effect","[4]; Table S1, und",2 mM
same,Concentration at which significantly membrane toxic,[4]; 24 h,2000 µM
"CNC(C)C(=O)c1ccc(F)cc1 (stereo not drawn) [4-FMC, 4-fluoromethcathinone]",Basal and stimulated (maximal) respiration: no significant effect up to,"[1]; both cell types, 24 h",> 1000 µM
same,Δψm: not toxic up to,[2],> 2000 µM
same,pIC50,[3]; [12],< 2.70
same,Concentration at which intracellular ATP content started to decrease,"[3]; differentiated cells, 24 h",did not significantly decrease the cellular ATP pool
same,pIC50,[3]; [13],< 2.70
same,Intracellular ATP content: no toxicity up to,[3],> 2000 µM
same,Concentration at which intracellular ATP content started to decrease,"[3]; undifferentiated cells, 24 h",> 2000 µM
same,pIC50,[4]; [14],< 2.70
same,pIC50,[4]; [15],< 2.70
same,Membrane toxicity: no toxicity up to,[4]; [16],> 2000 µM
CNC(C)C(=O)c1ccccc1 (stereo not drawn) [methcathinone],Effect on oxidative metabolism,[1]; 24 h,did not affect the oxidative metabolism
same,Δψm: not toxic up to,[2],> 2000 µM
same,pIC50,[3]; [12],< 2.70
same,Concentration at which intracellular ATP content started to decrease,"[3]; differentiated cells, 24 h",did not significantly decrease the cellular ATP pool
same,pIC50,[3]; [13],< 2.70
same,Intracellular ATP content: no toxicity up to,[3],> 2000 µM
same,Concentration at which intracellular ATP content started to decrease,"[3]; undifferentiated cells, 24 h",> 2000 µM
same,pIC50,[4]; [14],< 2.70
same,pIC50,[4]; [15],< 2.70
same,Cytotoxicity (membrane damage and/or ATP depletion): not cytotoxic up to,[4]; [16],> 2 mM
same,Membrane toxicity: no toxicity up to,[4]; [16],> 2000 µM
"CC(N)Cc1ccc(F)cc1 (stereo not drawn) [4-FA, 4-fluoroamphetamine]",Effect on oxidative metabolism,[1]; 24 h,did not affect the oxidative metabolism
same,Necrosis: starting concentration,[5]; [17],2000 µM
same,Necrosis: starting concentration,[5]; [18],2000 µM
same,"MMP, lowest concentration with significant toxic effect","[2]; Table S1, diff",0.5 mM
same,"MMP, lowest concentration with significant toxic effect","[2]; Table S1, und",1 mM
same,Effect on Δψm,[2],decreased the Δψm in a concentration-dependent manner
same,pIC50,[3]; [8],2.85
same,pIC50,[3]; [9],2.84
same,pIC50,[3]; [19],~2.85
same,"O− production, lowest concentration with significant toxic effect","[6]; Table S1, und",2 mM
same,Concentration at which mitochondrial superoxide production started to increase,[6]; differentiated SH-SY5Y cells,2000 µM
same,Concentration at which mitochondrial superoxide production started to increase,[6]; undifferentiated SH-SY5Y cells,2000 µM
same,pIC50,[4]; [10],< 2.70
same,pIC50,[4]; [11],< 2.70
same,"Cytotoxicity, lowest concentration with significant toxic effect","[4]; Table S1, diff",2 mM
same,"Cytotoxicity, lowest concentration with significant toxic effect","[4]; Table S1, und",2 mM
same,Concentration at which significantly membrane toxic,[4]; 24 h,2000 µM
"CNC(C)C(=O)c1ccc(Cl)cc1 (stereo not drawn) [4-CMC, 4-chloromethcathinone]",Abundance of cleaved caspase 3,[7],increased the abundance of cleaved caspase 3
same,"OCR, lowest concentration with significant toxic effect","[1]; Table S1, diff",0.2 mM
same,"OCR, lowest concentration with significant toxic effect","[1]; Table S1, und",0.5 mM
same,Concentration reaching statistical significance for decrease of basal and FCCP-stimulated respiration,"[1]; differentiated cells, 24 h",200 µM
same,Concentration reaching statistical significance for decrease of basal and FCCP-stimulated respiration,"[1]; undifferentiated cells, 24 h",500 µM
same,"Apoptosis, lowest concentration with significant toxic effect","[5]; Table S1, diff",1 mM
same,"Apoptosis, lowest concentration with significant toxic effect","[5]; Table S1, und",2 mM
same,Apoptosis: concentration reaching statistical significance,[5]; [17],1000 µM
same,Necrosis: starting concentration,[5]; [17],2000 µM
same,Apoptosis: concentration reaching statistical significance,[5]; [18],2000 µM
same,Apoptosis: starting concentration,[5]; [18],1000 µM
same,"MMP, lowest concentration with significant toxic effect","[2]; Table S1, diff",2 mM
same,"MMP, lowest concentration with significant toxic effect","[2]; Table S1, und",0.5 mM
same,Effect on Δψm,[2],decreased the Δψm in a concentration-dependent manner
same,"ATP depletion, lowest concentration with significant toxic effect","[3]; Table S1, diff",1 mM
same,"ATP depletion, lowest concentration with significant toxic effect","[3]; Table S1, und",0.5 mM
same,pIC50,"[3]; both cell types, summary in abstract, read-out: IC50 values for cellular ATP depletion (in the range of)",~2.85
same,pIC50,[3]; [12],2.88
same,Concentration at which intracellular ATP content started to decrease,"[3]; differentiated cells, 24 h",1000 µM
same,pIC50,[3]; [13],2.84
same,Concentration at which intracellular ATP content started to decrease,"[3]; undifferentiated cells, 24 h",500 µM
same,"O− production, lowest concentration with significant toxic effect","[6]; Table S1, diff",2 mM
same,"O− production, lowest concentration with significant toxic effect","[6]; Table S1, und",2 mM
same,Concentration at which mitochondrial superoxide production started to increase,[6]; differentiated SH-SY5Y cells,2000 µM
same,Concentration at which mitochondrial superoxide production started to increase,[6]; undifferentiated SH-SY5Y cells,2000 µM
same,"Cytotoxicity, lowest concentration with significant toxic effect","[4]; Table S1, diff",2 mM
same,"Cytotoxicity, lowest concentration with significant toxic effect","[4]; Table S1, und",2 mM
same,pIC50,[4]; [14],< 2.70
same,pIC50,[4]; [15],< 2.70
same,Concentration at which significantly membrane toxic,[4]; 24 h,2000 µM
"CC(N)Cc1ccc(Cl)cc1 (stereo not drawn) [PCA, 4-Chloroamphetamine]","OCR, lowest concentration with significant toxic effect","[1]; Table S1, diff",0.1 mM
same,"OCR, lowest concentration with significant toxic effect","[1]; Table S1, und",0.05 mM
same,Concentration reaching statistical significance for decrease of basal and FCCP-stimulated respiration,"[1]; differentiated cells, 24 h",100 µM
same,Concentration reaching statistical significance for decrease of basal and FCCP-stimulated respiration,"[1]; undifferentiated cells, 24 h",50 µM
same,"Apoptosis, lowest concentration with significant toxic effect","[5]; Table S1, diff",0.1 mM
same,Necrosis: concentration reaching statistical significance,[5]; [17],500 µM
same,Necrosis: starting concentration,[5]; [17],100 µM
same,Necrosis: concentration reaching statistical significance,[5]; [18],500 µM
same,Necrosis: starting concentration,[5]; [18],200 µM
same,"MMP, lowest concentration with significant toxic effect","[2]; Table S1, diff",0.2 mM
same,"MMP, lowest concentration with significant toxic effect","[2]; Table S1, und",0.5 mM
same,Concentration starting to decrease Δψm,[2]; differentiated SH-SY5Y cells,200 µM
same,Concentration starting to decrease Δψm,[2]; undifferentiated SH-SY5Y cells,500 µM
same,pIC50,[3]; [8],3.41
same,pIC50,[3]; [9],3.38
same,pIC50,[3]; [19],~3.40
same,"ATP depletion, lowest concentration with significant toxic effect","[3]; Table S1, diff",0.5 mM
same,"ATP depletion, lowest concentration with significant toxic effect","[3]; Table S1, und",0.2 mM
same,Concentration at which intracellular ATP content started to decrease,"[3]; differentiated cells, 24 h",500 µM
same,Concentration at which intracellular ATP content started to decrease,"[3]; undifferentiated cells, 24 h",200 µM
same,"O− production, lowest concentration with significant toxic effect","[6]; Table S1, diff",2 mM
same,"O− production, lowest concentration with significant toxic effect","[6]; Table S1, und",0.5 mM
same,Concentration at which mitochondrial superoxide production started to increase,[6]; differentiated SH-SY5Y cells,trend for an increase at 2000 µM
same,Concentration at which mitochondrial superoxide production started to increase,[6]; undifferentiated SH-SY5Y cells,500 µM
same,pIC50,[4]; [10],3.11
same,"Cytotoxicity, lowest concentration with significant toxic effect","[4]; Table S1, diff",0.2 mM
same,"Cytotoxicity, lowest concentration with significant toxic effect","[4]; Table S1, und",0.5 mM
same,Concentration at which membrane toxicity started,"[4]; differentiated cells, 24 h",200 µM
same,Concentration at which significantly membrane toxic,[4]; 24 h,500 µM
